According to PMC4336329 (PLoS ONE, 2015):
About 14,000 (4.5%) of roughly 310,000 compounds showed an effect of 50% or more. Effects have a minus sign here. The list shows a part of the results.

The molecules below were run against human ether-à-go-go-related gene (hERG) potassium channel (human, UniProt Q12809) (assay: primary screen, population patch clamp on CHO cells stably expressing hERG).
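Note: peak tail current of the secondary pulse compared with the same well before compound.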

Sequence of human ether-à-go-go-related gene (hERG) potassium channel (Q12809 whole entry, looked up): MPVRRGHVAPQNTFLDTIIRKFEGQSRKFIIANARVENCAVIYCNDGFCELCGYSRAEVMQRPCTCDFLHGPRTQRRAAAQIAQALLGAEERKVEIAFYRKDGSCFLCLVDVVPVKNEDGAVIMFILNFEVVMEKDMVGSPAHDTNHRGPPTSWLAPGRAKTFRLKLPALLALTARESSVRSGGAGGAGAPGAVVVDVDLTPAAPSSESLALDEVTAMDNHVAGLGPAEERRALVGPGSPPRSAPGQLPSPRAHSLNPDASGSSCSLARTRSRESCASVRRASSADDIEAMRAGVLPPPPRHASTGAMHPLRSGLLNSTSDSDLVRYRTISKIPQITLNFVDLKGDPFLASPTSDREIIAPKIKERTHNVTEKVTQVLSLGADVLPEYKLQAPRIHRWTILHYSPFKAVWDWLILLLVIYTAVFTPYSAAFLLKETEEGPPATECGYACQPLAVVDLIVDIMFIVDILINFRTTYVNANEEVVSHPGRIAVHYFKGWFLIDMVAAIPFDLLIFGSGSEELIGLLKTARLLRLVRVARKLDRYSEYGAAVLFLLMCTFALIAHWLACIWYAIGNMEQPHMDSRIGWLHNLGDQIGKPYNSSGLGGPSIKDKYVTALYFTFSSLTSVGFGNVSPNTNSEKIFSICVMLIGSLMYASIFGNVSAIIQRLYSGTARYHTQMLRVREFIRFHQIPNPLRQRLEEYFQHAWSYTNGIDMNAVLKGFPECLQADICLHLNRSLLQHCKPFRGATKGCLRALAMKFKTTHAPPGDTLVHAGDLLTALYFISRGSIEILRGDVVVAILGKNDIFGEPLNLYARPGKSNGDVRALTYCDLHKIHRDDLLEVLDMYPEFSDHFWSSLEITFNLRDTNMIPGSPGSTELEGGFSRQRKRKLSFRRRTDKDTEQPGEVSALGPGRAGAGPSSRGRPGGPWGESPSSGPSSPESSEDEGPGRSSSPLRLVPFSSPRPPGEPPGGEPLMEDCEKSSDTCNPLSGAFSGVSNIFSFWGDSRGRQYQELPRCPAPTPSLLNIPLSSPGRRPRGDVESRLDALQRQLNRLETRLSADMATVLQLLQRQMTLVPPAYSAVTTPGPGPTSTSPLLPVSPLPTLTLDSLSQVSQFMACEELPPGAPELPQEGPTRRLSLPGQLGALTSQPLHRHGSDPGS

Row | SMILES | hERG current change (%, negative = inhibition) at 10uM
1 | COc1ccc(N(CC(=O)NCCc2ccccc2)C(=O)CCC(=O)Nc2nccs2)c(OC)c1 | -15.2%
2 | CCCCOC(=O)CSc1nc2c(c(=O)[nH]c(=O)n2C)n1C/C=C(\C)Cl | -20.6%
3 | Cn1ncc(N=Cc2ccccc2[N+](=O)[O-])c1C(N)=O | 11.8%
4 | CC(c1ccco1)N(C(=O)C12CC3(C)CC(C)(CC(C)(C3)C1)C2)c1ccccn1 (stereo not drawn) | 10.1%
5 | O=c1[nH]c(=O)c2ccccc2[nH]1 | 13.1%
6 | CC(C)(C)OC(=O)NCCc1nnc(SCc2ccccc2Cl)o1 | -23%
7 | CC(C)C(=O)c1cc2c(cc1NC(=O)c1ccccc1)OCCO2 | 21.2%
8 | O=C(O)c1cccc(NC(=O)c2ccc3c(c2)C(=O)N(CC2CCCO2)C3=O)c1 (stereo not drawn) | 3.92%
9 | O=C(O)CN1C(=O)c2ccc(Oc3cccc4c3C(=O)N(CC(=O)O)C4=O)cc2C1=O | 7.52%
10 | Cc1nnc(SCc2cccc([N+](=O)[O-])c2)o1 | 11.3%
11 | CCN(c1cccc(C)c1)S(=O)(=O)c1csc(C(N)=O)c1 | 11.8%
12 | COC(=O)c1c(C)[nH]c(C(=O)OCC(=O)N(CC(C)C)c2c(N)n(Cc3ccccc3)c(=O)[nH]c2=O)c1C | -5.09%
13 | O=C(Nc1nc2ccc(S(=O)(=O)N3CCCC3)cc2s1)c1ccco1 | 11.5%
14 | O=C(NCc1ccccc1)N1CCN(c2ccc(Cl)c(Cl)c2)CC1 | 14.3%
15 | Cc1ccc(Cc2nnc3n(-c4cccc(C)c4)nc(C(=O)c4ccccc4)n3c2=O)cc1 | -3.85%
16 | O=C(CSc1nnc(-c2cccc(S(=O)(=O)N3CCCC3)c2)n1-c1ccccc1)Nc1cccc(C(=O)O)c1 | -19.9%
17 | COc1ccc(CNC(=S)Nc2cccc(F)c2)cc1 | -5.98%
18 | Cc1cc(C)c2c(N)c3ccccc3nc2n1 | -53.9%
19 | O=C(CSc1ccccc1C(=O)N1CCCCC1)NCC1CCCCC1 | 10.4%
20 | O=C(O)C(=O)O.Oc1ccccc1CNCCCN1CCOCC1 | 16.3%
21 | COc1ccc(C2C3=C(CC(C)(C)CC3=O)Oc3ncn(CCO)c(=N)c32)cc1OC (stereo not drawn) | -24.5%
22 | COC(=O)c1cn(C(=O)c2cc(Br)ccc2Cl)c2ccccc12 | 22.2%
23 | CCC(C)Nc1nc(-c2cccc(OC)c2O)nc2ccccc12 (stereo not drawn) | -5.73%
24 | C/C(=N\NC(=O)Cn1nnc2ccccc21)c1ccco1 | 24%
25 | Cc1ccc2cccc(Oc3ncnc4sc(C)c(C)c34)c2n1 | 15.3%
26 | CCCCCCCCCCCCCCCC(=O)NCCO | 9.93%
27 | CNC(=O)C1CCN(S(=O)(=O)c2c(C)noc2/C=C/c2ccc(OC)cc2)CC1 | -5.2%

Row | SMILES | hERG current change (%, negative = inhibition) at 10uM
28 | CCOC(=O)C1CCN(C(=O)CN(c2ccc3c(c2)OCCO3)S(=O)(=O)c2ccccc2)CC1 | -53.1%
29 | c1ccc(CN2CCN(c3nc(-c4ccccc4)nc(-n4ccnc4)n3)CC2)cc1 | -7.81%
30 | Cn1c(=O)[nH]c(=O)c2c1nc(SCCCO)n2CCCc1ccccc1 | -22.8%
31 | CCOC(=O)Nc1ccc2c(c1)N(C(=O)CN1CCN3CCCC3C1)c1ccccc1CC2.Cl (stereo not drawn) | -43.2%
32 | Nc1ccc(S(=O)(=O)N2CCCC2C(=O)O)cc1 (stereo not drawn) | -1.72%
33 | CN(c1ccc(OCC(=O)OCC(=O)Nc2ccccc2)cc1)S(=O)(=O)c1ccc(F)cc1 | -11.9%
34 | NC(=O)CC(NC(=O)Cc1cccc2ccccc12)c1ccc(NCCc2cccc(F)c2)c([N+](=O)[O-])c1 (stereo not drawn) | 4.2%
35 | Cc1cc(C)nc(Nc2cc([N+](=O)[O-])ccc2C)n1.Cl | 9.26%
36 | CC1=CCC2C(=O)N(c3ccc(S(N)(=O)=O)cc3)C(=O)C2C1 (stereo not drawn) | 11.2%
37 | COc1ccc(C(=O)C[n+]2cc(Br)cc3ccccc32)cc1[N+](=O)[O-].[Br-] | -66.3%
38 | Cc1c(NS(=O)(=O)c2ccc(Br)cc2)c(=O)n(-c2ccccc2)n1C | -6.03%
39 | CCOc1ccc(N(CC(=O)Nc2ccccc2C(=O)N2CCOCC2)S(=O)(=O)c2ccc(F)cc2)cc1 | -30.5%
40 | COc1ccc(S(=O)(=O)NNC(=O)c2ccc([N+](=O)[O-])cc2)cc1 | 5.85%
41 | Cc1ccc(CNC(=O)[C@H]2C[C@@H]2[C@H](NP(=O)(c2ccccc2)c2ccccc2)c2ccccc2)o1 | -20.8%
42 | COc1ccc(CCNC(=O)C2CCCN2C(=O)Nc2ccc(F)cc2)cc1OC (stereo not drawn) | 16.5%
43 | CN1CCN(c2nc(N3CCN(CCO)CC3)nc3ccccc23)CC1.Cl | 7.33%
44 | O=C1NC2(CCCCC2)C(=O)N1Cc1ccc([N+](=O)[O-])cc1 | -47.7%
45 | CCOC(=O)Cc1nn(CCc2ccccn2)c(=O)c2ccccc12 | -6.89%
46 | O=C(COc1ccccc1)N1CCN(C(=O)c2ccc([N+](=O)[O-])cc2)CC1 | -62.4%
47 | CC(C)(C)c1ccc(C(=O)NNC(=S)NC(=O)c2cccnc2)cc1 | 10.9%
48 | CCCc1c(-c2ccc(O)cc2)nn(-c2ccc(O)cc2)c1-c1ccc(O)cc1 | 12.6%
49 | COC(=O)CSC(=S)N1C(C)CCCC1C (stereo not drawn) | 37.2%
50 | O=C(NCCc1ccc(F)cc1)Nc1ccccc1Cl | 11.6%
51 | O=C(/C=C/c1cccc(F)c1)N(c1ccccn1)C1CCCCC1 | 9.8%
52 | COc1cccc(CNC(=O)CCCNC(=O)c2ccc(Cl)cc2)c1 | -6.61%
53 | CC(C)N(Cc1ccccc1)C(=O)CN1C(=O)NC2(CCCC2)C1=O | 1.82%
54 | Cc1nn2c(=O)c(NC(=O)c3ccc(Cl)cc3)cnc2s1 | -6.02%
